About 2,200 (0.71%) of roughly 310,000 compounds showed an effect of 50% or more. Effects have a minus sign here. The list shows a part of the results.
target: human ether-à-go-go-related gene (hERG) potassium channel (human, UniProt Q12809); experiment: primary screen, population patch clamp on CHO cells stably expressing hERG
Sequence (Q12809 whole entry, looked up): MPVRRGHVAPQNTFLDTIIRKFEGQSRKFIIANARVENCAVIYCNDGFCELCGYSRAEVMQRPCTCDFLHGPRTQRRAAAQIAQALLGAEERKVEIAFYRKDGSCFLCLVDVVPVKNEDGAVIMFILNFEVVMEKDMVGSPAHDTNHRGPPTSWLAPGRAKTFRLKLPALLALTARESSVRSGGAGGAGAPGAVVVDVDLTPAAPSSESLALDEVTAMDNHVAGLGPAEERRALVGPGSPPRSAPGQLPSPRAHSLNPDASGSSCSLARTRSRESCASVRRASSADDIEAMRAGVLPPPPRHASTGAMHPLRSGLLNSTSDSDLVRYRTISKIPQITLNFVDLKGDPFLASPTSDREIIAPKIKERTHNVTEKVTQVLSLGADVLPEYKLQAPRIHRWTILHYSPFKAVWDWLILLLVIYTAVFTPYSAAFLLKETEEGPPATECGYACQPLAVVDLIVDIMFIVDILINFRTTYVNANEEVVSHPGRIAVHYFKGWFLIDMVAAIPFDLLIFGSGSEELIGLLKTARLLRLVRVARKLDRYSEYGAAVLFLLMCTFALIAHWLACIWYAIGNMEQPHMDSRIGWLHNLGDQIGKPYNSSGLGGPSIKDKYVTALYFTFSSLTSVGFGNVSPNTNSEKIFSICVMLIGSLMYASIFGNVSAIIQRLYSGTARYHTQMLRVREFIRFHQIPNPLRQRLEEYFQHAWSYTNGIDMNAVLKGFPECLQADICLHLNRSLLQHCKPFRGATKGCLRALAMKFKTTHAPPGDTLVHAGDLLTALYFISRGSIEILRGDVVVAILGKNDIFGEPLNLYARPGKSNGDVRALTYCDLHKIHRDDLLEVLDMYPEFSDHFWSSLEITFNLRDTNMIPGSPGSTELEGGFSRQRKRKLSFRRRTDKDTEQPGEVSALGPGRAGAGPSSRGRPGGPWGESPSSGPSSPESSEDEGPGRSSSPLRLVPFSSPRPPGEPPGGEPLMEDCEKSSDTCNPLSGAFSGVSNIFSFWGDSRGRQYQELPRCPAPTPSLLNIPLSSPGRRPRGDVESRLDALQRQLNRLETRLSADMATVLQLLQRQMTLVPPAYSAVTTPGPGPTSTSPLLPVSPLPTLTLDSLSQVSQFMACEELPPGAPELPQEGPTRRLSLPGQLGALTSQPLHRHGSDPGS

SMILES | hERG current change (%, negative = inhibition) at 1uM
CCCOc1ccc(-c2nc(SCc3ccccc3)[nH]c(=O)c2C#N)cc1OC | 8.97%
Cc1c(Cl)cccc1NC(=S)NC(=O)c1cncc(Br)c1 | 19.9%
O=S(=O)(NCC1CN(S(=O)(=O)c2c(F)cccc2F)C1)c1ccc2c(c1)OCCO2 | 15.5%
OCCOCCNc1ncnc2sc(-c3ccccc3)cc12 | -7.21%
CCOC(=O)C1CCN(C(=O)COC(=O)CSc2ccc([N+](=O)[O-])cc2)CC1 | 3.96%
Cc1cc(NC(=O)c2noc3c2CCCCC3)nn1Cc1ccc(Cl)cc1 | 3.3%
Cc1nnc(-c2cnn(C)c2N)n1Cc1ccc(Cl)cc1 | 14.8%
FC(F)(F)c1cnc(N/N=C/c2ccncc2)c(Cl)c1 | 0.979%
CN(C)/C=C(\C#N)C(=O)Nc1ccc(F)c(Cl)c1 | 10.3%
CC1=NN(c2ccccc2)C(=O)/C1=C/c1ccc(-c2ccc(C)c(C(=O)O)c2)o1 | 12.2%
CCOc1ccc(OCC)c(NC(=O)c2ccc(CNc3c(N4CCCC4)c(=O)c3=O)cc2)c1 | 9.66%
Cc1cccc(N2C(=O)CC(N3CCN(c4ccccc4)CC3)C2=O)c1 (stereo not shown) | 11.8%
COc1ccc(Br)cc1CNC(=O)CCCc1cn(C)c2ccccc12 | 18.6%
CCc1nn(C(C)C(=O)N2CCN(c3ccccc3)CC2)c(=O)c2cc3occc3n12 (stereo not shown) | -4.37%
CCCCOc1ccc(S(=O)(=O)Nc2cc(OC)ccc2OC)cc1 | 15.7%
O=C(OC1CCN(c2ncc(C(F)(F)F)cc2Cl)CC1)c1cccc(C(F)(F)F)c1 | 16.6%
COc1ccc(OCC(=O)N/N=C/C=C/c2ccccc2)cc1 | -4.98%
Cc1cc(NC(=O)Cn2nnc3sc4c(c3c2=O)CCC(C(C)(C)C)C4)no1 (stereo not shown) | 4.19%
O=Cc1ccc(OCc2cccc(C(F)(F)F)c2)cc1O | 14.5%
O=C(O)c1ccc(CNC(=O)c2ccc3c(c2)C(=O)N(Cc2cccnc2)C3=O)cc1 | 5.67%
COC(=O)c1ccc(NC(=O)Cn2nc(C(=O)Nc3ccc(C)cc3)ccc2=O)cc1 | 10.8%
CC(Sc1nnnn1C1CCCC1)C(=O)Nc1cccc(S(=O)(=O)N2CCOCC2)c1 (stereo not shown) | 4.97%

SMILES | hERG current change (%, negative = inhibition) at 1uM
COc1ccc(-c2noc(CNC(=O)C(C)Oc3ccccc3)n2)cc1 (stereo not shown) | -1.42%
Cc1ccc(C23CC4CC(CC(NC(=O)N5CCN(C)CC5)(C4)C2)C3)cc1 | 5.68%
CO/N=C(/CS(=O)(=O)c1ccc(Br)cc1)c1ccc(OC)cc1 | 7.67%
COc1ccc2nc(NC(=O)CSCC(=O)Nc3cc(C)on3)sc2c1 | 10.9%
CC(C)C(C)(C#N)NC(=O)CSc1nc2scc(-c3ccccc3)c2c(=O)[nH]1 (stereo not shown) | 8.72%
Nn1c(SCC(=O)Nc2ccc3c(c2)OCO3)nnc1-c1cccc(Cl)c1 | -9.11%
O=C(CCc1nnc2ccc(NCc3ccccc3Cl)nn12)NC1CCCC1 | 12.4%
CCC(C)NC(=O)c1ccccc1SC (stereo not shown) | 7.27%
COc1ccc(-n2cc(CNCCN3CCOC3=O)c(-c3ccccc3Cl)n2)cc1 | 4.69%
O=C1c2ccccc2C(=O)N1CCC(O)C[N+](=O)[O-] (stereo not shown) | 17.3%
Cn1c(=O)c2c(nc(NCCc3ccccc3)n2CC(=O)NCCc2ccccc2)n(C)c1=O | 12.5%
COc1cccc(NC(=O)CNC(=O)N2CC(=O)Nc3ccccc32)c1 | 6.61%
COc1cccc(CNC(=O)CCCn2c(=S)[nH]c3cc4c(cc3c2=O)OCO4)c1 | 12.8%
COc1ccc(C(=O)N2CCCC(Nc3ccc(F)cc3)C2)c(OC)c1 (stereo not shown) | 16.4%
CCN1C(=O)c2cccc3c(NC(=O)c4ccc(OC)c(OC)c4)ccc1c23 | -22.3%
O=C(NCC1CCCO1)NC1CCCCC1 (stereo not shown) | 16.5%
CC(=O)Nc1ccc(-c2nc3ccccc3o2)cc1 | -2.43%
Cc1cccn2cc(-c3cccc(S(=O)(=O)N4CCCCC4)c3)nc12 | 6.48%
O=C(CCN1C(=O)c2ccccc2C1=O)NCc1ccccc1 | 8.97%
CC(C)c1ccc2c(c1)C(N1CCNCC1)Cc1ccc(F)cc1S2.O.O=C(O)/C=C\C(=O)O (stereo not shown) | 13.7%
O=C(CCOc1ccccc1)Nc1ccc([N+](=O)[O-])cc1 | -18.3%

Reference: article PMC4336329 (PLoS ONE, 2015)
